Among the data in PubChem BioAssay AID1259407 (Chemical Carcinogenesis Research Information System (CCRIS), 2018) are mutagenic call values, retold here.

For this data set, the system named is CCRIS mutagenicity, Ames/micronucleus/aberration tests. The data set is described as follows: CCRIS mutagenicity studies.
Where [1] appears, read: Test System: MOUSE LYMPHOMA, Strain/Indicator: L5178Y (TK+/TK-), Metabolic Activation: RAT, LIVER, S-9, AROCLOR 1254, Method: SUSPENSION/PLATE.
Setting [2] is: Test System: MOUSE LYMPHOMA, Strain/Indicator: L5178Y (TK+/TK-), Metabolic Activation: NONE, Method: SUSPENSION/PLATE.

Entries after “also recorded” stand apart in the source; their conditions may differ. Some entries of the source have several records that differ or are many. The other results are left out here. The rule behind the calls is not given here. The source may hold further records. Values given together differ, and nothing given here explains why; some may be repeats, others may stem from another dose, organism or construct than stated. Marks in square brackets tell the records apart. Letters hold for one entry only.

For `O=C=Nc1ccc(Cc2ccc(N=C=O)cc2)cc1`, the mutagenic call is, setting by setting: (Test System: AMES SALMONELLA TYPHIMURIUM, Strain/Indicator: TA98, Metabolic Activation: RAT, LIVER, S-9, AROCLOR 1254 (30%), Method: STANDARD PLATE) “active; positive [sample A] and inactive; negative [sample A] and active; positive [sample B] and inactive; negative [sample B]”; (Test System: AMES SALMONELLA TYPHIMURIUM, Strain/Indicator: TA100, Metabolic Activation: RAT, LIVER, S-9, AROCLOR 1254 (30%), Method: STANDARD PLATE) “active; positive [sample A] and inactive; negative [sample A] and active; positive [sample B] and inactive; negative [sample B]”. In the case of `ClCBr`, under “End Point: IN VITRO CHROMOSOMAL ABERRATIONS, Test System: CHL CELLS, Metabolic Activation: RAT, LIVER, S-9, SODIUM PHENOBARBITAL AND 5,6-BENZOFLAVONE”, the mutagenic call is “inactive; negative [study A] and active; positive (structural changes) [study B]”. In the case of `CC(=O)Nc1cccc2c1-c1ccccc1C2`, the mutagenic call by setting is: under setting [1], “inactive; negative [study A] and active; positive [study B]”; (Test System: MOUSE LYMPHOMA, Strain/Indicator: L5178Y (TK+/TK-), Metabolic Activation: RAT, LIVER, S-9, Method: SUSPENSION/PLATE) “inactive; negative [study A] and active; positive [study B]”. With `COc1cccc2c1cc([N+](=O)[O-])c1c(C(=O)O)cc3c(c12)OCO3`, the mutagenic call is, setting by setting: (End Point: IN VITRO MICRONUCLEUS, Test System: CHO (WBL) CELLS, Metabolic Activation: NONE) “active; positive and inactive; negative”; (End Point: IN VITRO MICRONUCLEUS, Test System: CHO CELLS, Metabolic Activation: NONE) “inactive; negative and active; positive”. Regarding `OCC(O)CCl` (stereo not drawn), the mutagenic call (Test System: AMES SALMONELLA TYPHIMURIUM, Strain/Indicator: TA98, Metabolic Activation: NONE, Method: PREINCUBATION) is “inactive; negative [study A] and active; positive [study B]”.

For the molecule `CC[n+]1c(-c2ccccc2)c2cc(N)ccc2c2ccc(N)cc21`, the mutagenic call under setting [2] was “inactive; negative [study A]; also recorded: active; positive. reevaluation of results: positive [study B]”. On to `O=C(O)C(Cl)Br` (stereo not drawn), for which the mutagenic call (Test System: Ames Salmonella typhimurium, Strain/Indicator: TA100, Metabolic Activation: None, Method: Preincubation) was “inactive; negative [study A] and active; positive [study B]”. Consider `C=CC(=O)OCCOC(=O)C=C`, for which the mutagenic call runs as follows: under setting [2], “active; positive [study A]; also recorded: active; positive. reevaluation of results: equivocal [study B]; also recorded: active; positive. reevaluation of results: equivocal [study C]”; under setting [1], “active; positive [study A]; also recorded: active; positive. reevaluation of results: equivocal [study B]”.

As for `CC1(C)CC2=C(C=O)[C@@]3(C=O)C[C@@]3(C)[C@@H](O)[C@@H]2C1`, the mutagenic call (Test System: AMES SALMONELLA TYPHIMURIUM, Strain/Indicator: TA2637, Metabolic Activation: NONE, Method: STANDARD PLATE) is “active; positive [study A] and inactive; negative [study B]”.
